Experimental data from PubChem BioAssay AID1347120 (National Center for Advancing Translational Sciences (NCATS), 2019).
About 930 (0.24%) of roughly 390,000 compounds were called active. The inconclusive results got no clear call from the source; some entries with a clear call stand among them for comparison. Calls follow the shape of the dose curve; as a rule, active = well fitted activation curve with a large enough effect; inconclusive = small, poorly fitted or top-dose-only effect; inactive = no such curve, though single readings can be large or run the other way. A potency beside an inconclusive call is a rough fit, not a confirmed value.

Test: qHTS for Suppressors of FUS Proteinopathy: Primary screen using FUS-linked yeast assay; also: nearly all actives have a fitted effect of over 55% in size;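 as to growth rescue (activation): plate controls were DMSO vehicle for no effect and reference control for full effect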
Settings: S. cerevisiae FUS-expressing, OD600, 24 h; Potency: growth rescue; growth rescue (activation): at 76.6 µM (top of the series)
In short: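 Absorbance at 600 nm, taken 24hr after compound addition, measured rescue of FUS-yeast growth at 30C. Induction used 2% galactose with seeding at OD 0.005. Controls: CP55940 from 92uM final, DMSO only.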
Potency is read from the fitted curve at half-maximal effect; tags tell the direction and shape of the fitted curve.

Row | SMILES | growth rescue (activation) | Potency
1 | CC1CCc2nc(NC(=O)Cc3cccs3)sc2C1 (stereo unspecified) | inactive: -2.06% | 
2 | COc1ccc([C@H]2CC(=O)C=C(c3cccc(Br)c3)C2)cc1OC |  | inconclusive: 20 µM [activator, single point]
3 | CC(=O)N1CCc2c(sc3c2c(=O)n(-c2ccccc2Cl)c(=O)n3Cc2cccc(C)c2)C1 |  | inconclusive: 35.5 µM [activator, single point]
4 | C=C(C)COc1ccc(-c2[nH]ncc2Oc2ccccc2OCC)c(O)c1 | inconclusive: 77.7% [activator] | 
5 | COc1ccccc1Cc1c(-c2ccc(OC)c(OC)c2)nc2c(C)cc(Br)cn12 |  | inconclusive: 35.5 µM [activator, single point]
6 | COc1ccc(OC)c(-n2c(=S)[nH]c3c(sc(=S)n3-c3ccccc3)c2=O)c1 |  | inconclusive: 44.7 µM [activator, partial curve, poor fit]
7 | Fc1ccc(-c2nc3ccc(Cl)cn3c2Cc2ccsc2)cc1 | inactive: 7.78% | 
8 | O=C(c1ccco1)N1CCN(c2nc(C3CC3)nc3sc4c(c23)CCCC4)CC1 |  | inconclusive: 39.8 µM [activator, single point]
9 | CCCCCn1c(=O)[nH]c2cc(C(=O)NCCN(CC)CC)ccc2c1=O | inactive: -3.04% | 
10 | Oc1oc(-c2ccccc2)nc1C=Nc1cccc2ccccc12 | inactive: 11% | 
11 | CC(=O)c1cc(-c2ccc3nonc3c2)c(=O)n2c1CCC2 | inactive: -18.5% | 
12 | O=C(c1ccoc1)N1CCN(c2cc(-c3cccc(F)c3)nc3cc(-c4cccc(Cl)c4)nn23)CC1 | inactive: -19.3% | 
13 | CCCc1cc(=O)[nH]c(SCC)n1 |  | inconclusive: 3.55 µM [activator, single point]
14 | COc1ccc(CNC(=O)c2cnc(N3CCCC3)nc2C)c(OC)c1 | inactive: -3.55% | 
15 | COc1ccc([C@H]2CC(=O)C=C(c3cc(F)ccc3F)C2)cc1OC | inactive: 28.3% | 
16 | O=C(c1ccc(Cl)cc1)N1CCC2CC1c1cc(-c3ccccc3)ccc12 (stereo unspecified) |  | inconclusive: 50.1 µM [activator, partial curve, poor fit]
17 | COC(=O)N1C(=O)[C@](c2ccccc2)(C(C)C)N1C(=O)OC | inactive: -10.4% | 
18 | CCOc1ccc(CNC(=O)C2CCN(c3nc4ccccc4nc3C(F)(F)F)CC2)cc1OC | inactive: -2.57% | 
19 | CSCCCN1CCCC(CO)(Cc2ccccc2F)C1 (stereo unspecified) |  | inconclusive: 5.01 µM [activator, full curve, poor fit]
20 | CC(C)N1CCC(N2CCN(Cc3ccc(C#CC(C)(C)O)s3)CC2CCO)CC1 (stereo unspecified) |  | inconclusive: 35.5 µM [activator, single point]
21 | CCCCNC(=O)C[C@@H]1C[C@@]2(C(=O)OCC)CCCC=C2N(Cc2ccc(Cl)cc2Cl)C1=O |  | inconclusive: 20 µM [activator, single point]
